This is one part of the list.

This passage reports binding signal results from PMC12136788.

The chains are these.
T1: UNK ZnF1-3 (human, UniProt Q9C0B0 31-174)
T1 sequence: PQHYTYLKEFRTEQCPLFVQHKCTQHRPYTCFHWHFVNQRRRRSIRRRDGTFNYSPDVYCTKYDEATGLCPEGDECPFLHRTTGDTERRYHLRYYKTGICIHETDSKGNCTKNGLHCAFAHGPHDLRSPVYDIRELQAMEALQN

B1: chr15:75216061:75216062:-_ENSG00000178741_ENST00000564811|perfect_dup|FALSE|FALSE (ssRNA)
RNA: GGGAGUUCUACAGUCCGACGAUCUUUGUCAAGGCCCAGCUCCUCUGGAGUGGAGAUUCCCAAUUCAUUUAAAGUUGGUCUAAGUUCCUGGAUGACAUAGGGAUAGAUUUCCUUAUGAGGUCCUGCUUUGUCCUUAACAACCUCCAACAGAGGAUUGAGCAUCA
B2: chr1:23883277:23883278:-_ENSMUSG00000026155_ENSMUST00000027339|mus_hu|motif|central (ssRNA)
RNA: GGGAGUUCUACAGUCCGACGAUCCUCCUUUUCUCUCUUUUUCUCUUCCUUUUUUUUUUCCUUUUCUUUAUUUGUAAUAGCGGUGGCAUUUUUAUCGUAGUAUUUCUUCUUUUCAUAUUUAUCUCUGAUGAAAAAUUCCACUGCCAACAGAGGAUUGAGCAUCA
B3: chr22:18299541:18299542:-_ENSG00000243156_ENST00000441493|hu_mus|FALSE|FALSE (ssRNA)
RNA: GGGAGUUCUACAGUCCGACGAUCAAGGAUGUCAUCACUGGACAGGUCUGAGUCCUCUGAGAAACUCAGCUGGCGGCGGAGCUGCAGCUCUGCUCUCACCAUUGGAGACGCCCUGCGCUGGCCGGAGUCCACCGUGGCGCCACUCAACAGAGGAUUGAGCAUCA
B4: chr12:114378518:114378519:+_ENSMUSG00000006356_ENSMUST00000084882|mus_mus|motif|central (ssRNA)
RNA: GGGAGUUCUACAGUCCGACGAUCCCCGGAGUGAGGUGGCGUCCACAGGGAUCGCCCGAGGAUUCCAUGGCCACAUAGUGAUCUCGGGCUGUAGAACGGACUUGGGAUCCCCAGCUUUAGGUCUCGAGGUCCGGGCCUGCUCGUCAACAGAGGAUUGAGCAUCA
B5: chr4:95690885:95690886:+_ENSMUSG00000028572_ENSMUST00000156910|mus_mus|mus_mus_mus_hu_False|8_28 (ssRNA)
RNA: GGGAGUUCUACAGUCCGACGAUCUUUAGAAAAUGUUAAAUACCAUGCUAAAAUAUUUUCAAAGGCUUAUUUUAUUUUACCAGAAGUCACAGGCAAGCAGACACUACAAACAUACAAGAAAAUGAAACAACAGUGUAUAACUGUCAACAGAGGAUUGAGCAUCA
B6: chr16:57153313:57153314:+_ENSMUSG00000022752_ENSMUST00000166897|mus_hu|FALSE|FALSE (ssRNA)
RNA: GGGAGUUCUACAGUCCGACGAUCUUUCAAAAAAUCAACUGAAAGCGGUUAACUGAAUAUAAAUCUAUUUUACAGCAUUUACUACGUUAAUUUAAAAAUCAACAUGCUGUAAAAUACUUACAUUAUUCACACAUAUAUAGACGGCAACAGAGGAUUGAGCAUCA

This assay has as its target T1, UNK ZnF1-3. In words: nsRBNS (natural sequence RNA bind-n-seq); RBNS binding buffer (assumed for nsRBNS): 25 mM Tris pH 7.5, 150 mM KCl, 3 mM MgCl2, 0.01% Triton X-100, 500 ug/ml BSA, 20 U/ml SUPERase-In, 4 C; UNK is unkempt and MSI1 is Musashi-1; names of the RNAs are library labels; protein concentration not given here; high values mean tight binding.
B1 gave a binding signal of 0.551 enrichment R.
B2 came in with a binding signal of 0.223 enrichment R.
In turn, B3 showed a binding signal of 0.853 enrichment R.
B4: the binding signal came out at 0.5 enrichment R.
As to B5, the binding signal came to 1.74 enrichment R.
The value for B6 was 0.603 enrichment R.
